B1: LINE1-mini (parent)
chain: GGCAGAGCUCAACACAGCGUGGCAAAGUGGCUGUGGCUAGACUGCC

The source gives no read counts; variants with many changes may rest on few reads.

In this data set the parent is B1. Description: self-cleavage, relative activity (ratio to wild type); higher = more cleavage; in vitro, sequencing; the parent is a self-cleaving ribozyme.
For G1U C10U G33U G40A C45G, the self-cleavage worked out at 0.02.

On to G1U G17A C18G G44U C45U, for which the self-cleavage was determined as 0.03.

In the case of G1U C13U A41U G44C, the self-cleavage stood at 0.14.

On to G1U G5U A39U, for which the self-cleavage turned out to be 0.04.

For the variant G1U G5A G19A U20C C23A G27U G35A G40C A41C, the self-cleavage amounted to 0.12.

Regarding G1U C18U C31A C37G, the self-cleavage stood at 0.01.

As to G1U C10G G21A C23A G30C A41C, the self-cleavage came to 0.01.

For the variant G1U C10A A26C, the self-cleavage came to 0.01.

In the case of G1U C10A A12U A14C G35U, the self-cleavage was found to be 0.02.

Consider G1U G5U G22C U32A G35U, for which the self-cleavage is 0.01.

For the variant G1U G2A G27A C37U C46G, the self-cleavage was determined as 0.23.

Turning to G1U G22U G33A U34A U43G, the self-cleavage was determined as 0.

As for G1U G2A U9C, the self-cleavage amounted to 0.02.

For the variant G1U G27U G29A, the self-cleavage was determined as 0.19.

As for G1U C23G C45U, the self-cleavage is 0.35.

As for G1U C18U C23A G30A C46U, the self-cleavage came out at 0.48.

With G1U G2C G22A G36U, the self-cleavage came out at 0.03.

In the case of G1U C15U C18A, the self-cleavage amounted to 0.03.

As for G1U G29U G35C A41C, the self-cleavage came to 0.02.

On to G1U C8G U9C C10G, for which the self-cleavage is 0.01.

Turning to G1U C10G G17U C46A, the self-cleavage came to 0.07.

On to G1U G7U C13A, for which the self-cleavage came to 0.02.

As for G1U C37U C45U C46A, the self-cleavage came to 0.

With G1U G2A C10U G22A, the self-cleavage is 0.12.

Turning to G1U G21C G30A G35U C46G, the self-cleavage was determined as 0.04.

On to G1U G33U G35A, for which the self-cleavage worked out at 0.03.

As for G1U G2U C45A, the self-cleavage is 0.27.

On to G1U C13G U32C U38A, for which the self-cleavage was found to be 0.05.

On to G1U C18A G29A G36A, for which the self-cleavage was 0.01.

For the variant G1U G30A C42G, the self-cleavage turned out to be 0.04.

For G1U G7A C10G A11U G19A G22U C42G, the self-cleavage is 0.

As for G1U C10U C15G G22C G27U A39C, the self-cleavage was 0.01.

For G1U G7C G21A, the self-cleavage came out at 0.1.

Regarding G1U G5C U28G G30U G36C, the self-cleavage is 0.02.

On to G1U G19A G44U, for which the self-cleavage is 0.25.

G1U C10G G29U: the self-cleavage amounted to 0.03.

Regarding G1U C8U G36U, the self-cleavage was determined as 0.12.

G1U C15U G29A: the self-cleavage stood at 0.31.

As for G1U C8U C13A C15U C37U C46A, the self-cleavage stood at 0.14.

G1U C31A A41U: the self-cleavage worked out at 0.02.

Regarding G1U G2A A12G, the self-cleavage is 0.03.

Turning to G1U G35A A39G A41G C42G, the self-cleavage came to 0.04.

Regarding G1U C31A C45U C46A, the self-cleavage is 0.03.

Take G1U G33C G35U: the self-cleavage is 0.09.

For G1U C8U G19A A24G A25C, the self-cleavage is 0.08.

G1U G22C A24G: the self-cleavage was determined as 0.16.

Consider G1U G7C G27U G30U G44C, for which the self-cleavage came out at 0.11.

As for G1U G7A A39G, the self-cleavage was 0.12.

As for G1U G17U G22A, the self-cleavage came out at 0.06.

Consider G1U C23G C31U A39G, for which the self-cleavage was found to be 0.02.

As to G1U C31U C46A, the self-cleavage was 0.21.

G1U C15U A26U G35C: the self-cleavage came out at 0.07.

With G1U G27A C31G, the self-cleavage turned out to be 0.07.

Take G1U G7C A24U A25G G36U U38C G40U U43A: the self-cleavage amounted to 0.06.

Regarding G1U G17U C18G, the self-cleavage came to 0.11.

With G1U G2A C13A C23G G44C, the self-cleavage came out at 0.09.

As to G1U G19C C37G C42A U43C, the self-cleavage amounted to 0.01.

In the case of G1U G19U G27C, the self-cleavage stood at 0.3.

Regarding G1U C23A U28A G44C, the self-cleavage worked out at 0.27.

As for G1U C10U G44U, the self-cleavage came out at 0.04.

Regarding G1U C13A C18U, the self-cleavage amounted to 0.01.

In the case of G1U G2A A4C G29C G33A A41G, the self-cleavage amounted to 0.07.

As for G1U G2U U32A C45U, the self-cleavage is 0.03.

For G1U C8U C15A A16C G27U U28A C31A, the self-cleavage turned out to be 0.01.

For G1U C13U A41G C45G, the self-cleavage was 0.06.

For the variant G1U C13U G21U A25U G44A C46U, the self-cleavage was found to be 0.02.

On to G1U G2A G17U, for which the self-cleavage amounted to 0.05.

On to G1U G7C C18U G27U, for which the self-cleavage stood at 0.46.

Turning to G1U G2U G30C A41C, the self-cleavage is 0.

Turning to G1U G5C A25G, the self-cleavage was 0.04.

G1U G5A A6U C8U A12U G40U C46A: the self-cleavage is 0.06.

Turning to G1U G35C G36A, the self-cleavage amounted to 0.05.

On to G1U C23U G27C G30C C45A, for which the self-cleavage is 0.95.

For the variant G1U G7U G27C A39U U43C, the self-cleavage worked out at 0.01.

Consider G1U G5C A12G C18A C46U, for which the self-cleavage is 0.02.

With G1U G17A G22C C37A, the self-cleavage worked out at 0.14.

Take G1U C10A C13A A14U G27C: the self-cleavage was determined as 0.

In the case of G1U G19U G33C, the self-cleavage came to 0.05.

For G1U C37A C42A, the self-cleavage stood at 0.06.

Take G1U C10A C18A G19C C23A: the self-cleavage came to 0.

Regarding G1U G27A G29U G30A, the self-cleavage was determined as 0.53.

With G1U C10A A12U G27A G29A, the self-cleavage was determined as 0.01.

For the variant G1U C18A C42G, the self-cleavage was determined as 0.1.

Regarding G1U G2A A4U A6U G19A G22U, the self-cleavage worked out at 0.77.

G1U C13U G40U G44U: the self-cleavage worked out at 0.16.

Regarding G1U C31G U38C, the self-cleavage came out at 0.02.

As for G1U G2U C8A U32C U43A, the self-cleavage was 0.01.

As for G1U C13G C42A, the self-cleavage turned out to be 0.06.

As to G1U C10A G29C U32A, the self-cleavage came out at 0.03.

On to G1U G22A G33C, for which the self-cleavage came out at 0.04.

For the variant G1U G5U A14G G36U U43A, the self-cleavage turned out to be 0.

With G1U C10U G30C, the self-cleavage was 0.18.

G1U C8U C13G C42A: the self-cleavage came to 0.02.

In the case of G1U C15A G33A C37A, the self-cleavage came out at 0.09.

G1U C15G U20A G36U: the self-cleavage is 0.02.

Turning to G1U G5U U38G, the self-cleavage amounted to 0.

As to G1U C10A G33U A39G G40U, the self-cleavage was 0.

G1U G19U C23U A39G: the self-cleavage is 0.03.

Take G1U G5U C23A C31U C37G C42U: the self-cleavage is 0.01.

Take G1U G19U G27C G30U U34G: the self-cleavage was determined as 0.03.

On to G1U G2A U20C C31G C45A, for which the self-cleavage is 0.12.

Turning to G1U G22C C23A U43C C45A, the self-cleavage came out at 0.04.

Consider G1U C8U C10G G30U G35C, for which the self-cleavage is 0.01.

Turning to G1U C8U C10G C13U G21U, the self-cleavage is 0.02.

Regarding G1U C13A U38G, the self-cleavage was determined as 0.

On to G1U C10G U20A A26C, for which the self-cleavage is 0.06.

Take G1U C8G U34G: the self-cleavage was 0.05.

As to G1U C10G C13G C15A C23U A26U C37G C42A, the self-cleavage stood at 0.02.

As to G1U G27U U28C G29A C45G, the self-cleavage came out at 0.12.

Turning to G1U C15G U32G, the self-cleavage stood at 0.03.

For G1U G5U A12C G44A, the self-cleavage is 0.02.

For the variant G1U G2C C3U A12U A39C, the self-cleavage worked out at 0.13.

As to G1U G19U U34C A39C, the self-cleavage is 0.

As for G1U G5U C8U, the self-cleavage is 0.23.

Take G1U G27C G29C U34G C42U C46U: the self-cleavage was 0.13.

Consider G1U G30C U34C, for which the self-cleavage is 0.02.

For the variant G1U G5U G19U G30U G40C C45A, the self-cleavage was 0.01.

For G1U G7C A11C, the self-cleavage was determined as 0.03.

With G1U C31U C37A G44U, the self-cleavage is 0.04.

Take G1U C8U A25C C37G U38G: the self-cleavage was found to be 0.

Consider G1U C31G U32G, for which the self-cleavage stood at 0.05.

Turning to G1U G2C G30C C31A G33U G35A, the self-cleavage came out at 0.01.

Take G1U G19A C31G U34A: the self-cleavage was 0.02.

With G1U G5C A24U A39U, the self-cleavage came to 0.16.

In the case of G1U G17U C46G, the self-cleavage came out at 0.05.

Take G1U C10A U20G G27A C46A: the self-cleavage is 0.03.

In the case of G1U G29U G40U C46A, the self-cleavage was found to be 0.03.

Consider G1U G33U G36A, for which the self-cleavage came to 0.

On to G1U G2U C3G A39C U43A, for which the self-cleavage came out at 0.03.

G1U C10U U32A: the self-cleavage was 0.02.

Take G1U C13G A39U: the self-cleavage stood at 0.02.

In the case of G1U C8U C18G A26G G27U, the self-cleavage amounted to 0.19.

Regarding G1U G2U A11U, the self-cleavage is 0.02.

As to G1U G7A C10A, the self-cleavage was determined as 0.01.

As to G1U G5U C8A C23U G27C U34G G44C, the self-cleavage is 0.06.

Take G1U G7C U34C C37U U38C: the self-cleavage came to 0.1.

As to G1U C13A A24C A26G U32C, the self-cleavage turned out to be 0.03.

Consider G1U C31G A39G, for which the self-cleavage came to 0.02.

In the case of G1U G5U A25U U28C, the self-cleavage was 0.13.

For G1U G17A G33U, the self-cleavage turned out to be 0.

As for G1U G17A G33A, the self-cleavage worked out at 0.01.

As for G1U C15G G33A A39U C46G, the self-cleavage was 0.

Turning to G1U G2A C3A U38C, the self-cleavage was found to be 1.48.

On to G1U C18G G22C, for which the self-cleavage was 0.22.

In the case of G1U C15U G17U A41U, the self-cleavage came to 0.03.

As for G1U C18U C31U, the self-cleavage stood at 0.01.

For G1U C13A A16U A26G C42U, the self-cleavage came out at 0.15.

Take G1U G5A A11U A26C U32A: the self-cleavage turned out to be 0.01.

In the case of G1U C13G G19C, the self-cleavage came out at 0.06.

For G1U C8U A11U A12U C31A A41G, the self-cleavage worked out at 0.

As to G1U C18U A26U G36A, the self-cleavage turned out to be 0.

In the case of G1U G5C U20A C23U, the self-cleavage came out at 0.02.

Take G1U C18A G19U: the self-cleavage amounted to 0.08.

As for G1U G5A C15G C18G U32C C37A, the self-cleavage was found to be 0.03.

In the case of G1U G21A G33U, the self-cleavage was found to be 0.06.

On to G1U G7U A26G, for which the self-cleavage is 0.19.

Take G1U G5U U9A G17U G30C C37U: the self-cleavage was 0.02.

As for G1U G2C G7U, the self-cleavage amounted to 0.02.

As to G1U G2C U9A C10G, the self-cleavage is 0.

In the case of G1U C10A A12G A14C G36C C46U, the self-cleavage is 0.

With G1U G27A A41U, the self-cleavage amounted to 0.87.

As for G1U C13U U20C U34G, the self-cleavage came to 0.03.

In the case of G1U G2U A11U A14U A16G C42U C46A, the self-cleavage is 0.

With G1U G5U G33C, the self-cleavage was determined as 0.06.

Take G1U C18U G19A C37A G44U: the self-cleavage amounted to 0.25.

On to G1U G5C C13A G22U A25G G35U, for which the self-cleavage was found to be 0.04.

Turning to G1U G7U G19A U28A U32A, the self-cleavage was determined as 0.05.

For the origin of these results see the RNAGym collection of RNA variant scans (doi:10.7554/elife.90254).
